From PubChem BioAssay AID1346428 (National Center for Advancing Translational Sciences (NCATS), 2018)
Values joined by “and” are separate entries in the source; they are usually repeats but may differ in a detail not shown here. Equal entries are not always repeated. The campaign covered roughly 48,000 compounds. About 1,200 (2.5%) were called active. Another 2% or so got no clear call; they are omitted.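 How the source made its calls: active means activation of at least 60% and not above a set upper limit (about 1 call in 100 departs from these limits); inconclusive means activation of 40% to 60%, or above that upper limit; inactive means activation under 40%.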 This is one part of the list.

Biological target: Probable G-protein coupled receptor 32 (Homo sapiens) (UniProt O75388)
Test: qHTS for Agonists of Human Resolvin D1 Receptor DRV1; further: 0% is about no effect
Conditions: CHO-K1 GPR32 beta-arrestin PathHunter luminescence, 90 min; at 76.9 µM; hits give high values; zero percent set by DMSO-only wells
Method in brief: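 Engineered CHO-K1 line co-expressing GPR32-ProLink and EA-beta-arrestin. Compound treatment lasted 90 min at 37 °C. Luminescence was recorded after 1 h with substrate at ambient temperature, relative to DMSO basal wells.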

UniProt O75388, sequence (O75388 whole entry, looked up): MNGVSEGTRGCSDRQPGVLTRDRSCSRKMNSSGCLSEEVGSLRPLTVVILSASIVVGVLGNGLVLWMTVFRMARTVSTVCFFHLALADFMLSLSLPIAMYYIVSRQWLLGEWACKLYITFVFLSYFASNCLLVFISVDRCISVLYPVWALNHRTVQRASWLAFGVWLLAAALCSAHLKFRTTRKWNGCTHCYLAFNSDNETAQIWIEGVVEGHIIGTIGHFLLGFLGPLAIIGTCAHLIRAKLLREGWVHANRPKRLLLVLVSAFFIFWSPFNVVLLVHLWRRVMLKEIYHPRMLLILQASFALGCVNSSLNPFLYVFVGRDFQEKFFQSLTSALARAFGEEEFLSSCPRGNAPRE

SMILES | activation
Cc1cccc(C(=O)OCc2cc(=O)n3nc(C4CC4)sc3n2)c1 | inactive: 0.555%
Cc1ccc(-c2nc(C(=O)Nc3cccc(C#N)c3)c3n2CCCCC3)cc1 | inactive: -7.6%
Cc1nc2nncn2c(Nc2ccc(F)cc2)c1C | inactive: -4.48%
COc1ccc(Cl)cc1NC(=O)c1cc2ccccn2n1 | inactive: -0.256%
COc1cccc(-n2c(=O)c3sccc3n(Cc3cc(=O)n4cc(Cl)ccc4n3)c2=O)c1 | inactive: -17.5%
CCC(=O)N1CCc2cc(S(=O)(=O)NCCC(=O)NCc3ccc(OC)cc3)ccc21 | inactive: 20%
CCCC1=Nc2cc(C(=O)NCC(C)c3ccccc3)ccc2Sc2ccccc21 (configuration not stated) | inactive: -15.4%
CCOc1ccc(CNC(=O)Cn2cc3c(n2)-c2c(oc(C(=O)N4CCCC4)c2C)CC3)cc1 | inactive: -9.6%
COc1cccc(CNC(=O)Cn2nc3c(cc2=O)CCCC3)c1OC | inactive: 7.91%
CC1CCCN(C(=O)CCS(=O)(=O)c2cc3c(cc2Cl)NC(=O)CO3)C1 (configuration not stated) | inactive: 15.3%
Cc1ccc(C2c3c(-c4ccccc4O)n[nH]c3C(=O)N2CCc2ccccc2)cc1 (configuration not stated) | inactive: 6.99%
CC(=O)N1c2c(cc(Br)cc2S(=O)(=O)Nc2ccc(OC(F)(F)F)cc2)CC1C (configuration not stated) | inactive: 30.8%
O=C(CCCn1c(=O)[nH]c2ccsc2c1=O)N1CCN(c2cccc(C(F)(F)F)c2)CC1 | active: 91.5%
Cc1cc(Cl)ccc1NC(=O)CN1C(=O)COc2ccc(S(=O)(=O)N3CCC(C)CC3)cc21 | inactive: -12.2%
CCOC(=O)c1noc2ncn(Cc3cccc(C#N)c3)c(=O)c12 | inactive: 6.76%
CCNc1nc(NC(C)CC)nc(Oc2ccc(OCC)nn2)n1 (configuration not stated) | inactive: 15.5%
COc1ccc(NC(=O)NCc2c(-n3cccc3)sc3c2CCCC3)c(OC)c1 | inactive: -14.7%
CCc1cccc(C)c1NC(=O)NC1COc2ccccc2C1 (configuration not stated) | inactive: -7.66%
COc1ccc(OCC(=O)Nc2nc(-c3ccc(Br)cc3)ns2)cc1 | inactive: 27.6%
Cc1c(C(=O)OC2CCC(C)CC2)[nH]c2c1C(=O)CC(c1ccccc1Cl)C2 (configuration not stated) | inactive: -13.7%
CCOc1ccc(CCNC(=O)CCCc2nnc3n(C)c(=O)c4sccc4n23)cc1OCC | inactive: 5.04%

SMILES | activation
COc1ccccc1CN(Cc1ccco1)c1cnc(S(C)(=O)=O)nc1C(=O)Nc1ccccc1Cl | inactive: -5.47%
COc1ccc(NC(=O)CSc2nc(-c3ccc(OC)c(OC)c3)[nH]c2-c2ccc(C)cc2)cc1 | inactive: -34.2%
COc1ccc(NCc2cc3cc4c(cc3n(CC(=O)Nc3ccccc3)c2=O)OCO4)cc1 | inactive: -44.8%
CCOC(=O)Cc1ccc(NC(=O)N(C(C)C)C2CCN(C(C)=O)CC2)cc1 | inactive: 6.81%
COc1ccc(Nc2cc(C(=O)NCc3cccs3)c3ccccc3n2)cc1 | inactive: -5.08%
O=C(CCCCn1c(=O)c2ccccc2n(CC(=O)Nc2ccc(F)cc2F)c1=O)NCc1ccccc1Cl | inactive: 5.46%
CN1CCN(C(=O)C(=O)Nc2c3c(nn2-c2cccc(Cl)c2)CSC3)CC1 | inactive: 3.54%
CCOc1ccc(C2=C(C(=O)CC)Sc3nncn3N2C(=O)CC)cc1 | inactive: -37.1%
Clc1ccc(C(Cn2ccnc2)OCc2ccsc2Cl)c(Cl)c1 (configuration not stated) | inactive: -108%
CCc1ccccc1N1C(=O)N(CC(=O)c2ccc(Cl)cc2)c2ccccc2S1(=O)=O | inactive: -9.68%
Cc1ccc(Cn2c(=O)n(CCc3ccccc3)c(=O)c3c(C)c(C)sc32)cc1 | inactive: 18.7%
CCOC(=O)c1c(C)[nH]c(C)c1S(=O)(=O)N1CCCC(C(=O)NCc2ccc(C)cc2)C1 (configuration not stated) | inactive: -4.72%
COC(=O)c1c(SC)nc2ccccc2c1OCc1ccc(C)cc1 | inactive: -38%
CCOC(=O)c1cc(S(=O)(=O)N2CCN(c3cccc(OC)c3)CC2)[nH]n1 | inactive: -18.4%
CCCCn1cc(S(=O)(=O)c2ccc(Cl)cc2)c(=O)c2cc(F)c(N3CCCC(C)C3)cc21 (configuration not stated) | inactive: -10.9%
CCOC(=O)Cn1c(=O)oc2cc(S(=O)(=O)N3CCCC(C)C3)ccc21 (configuration not stated) | inactive: -12.5%
O=C(NCc1ccc(Cl)cc1)c1ccc2oc(=O)n(Cc3ccccc3)c2c1 | inactive: 4.49%
COC(=O)c1c(-c2ccc(Cl)cc2)noc1N1CCN(c2cccc(C)c2C)CC1 | inactive: 0.155%
CCc1cnc2c(c1SCC(=O)Nc1ccc(OC)c(OC)c1)c(=O)n(C)c(=O)n2C | inactive: 2.59%
CCc1cccc(NC(=O)C(Cc2ccccc2)NS(=O)(=O)c2ccc3c(c2)c(=O)n(C)c(=O)n3C)c1 (configuration not stated) | inactive: -12.7%
COc1cc(Cl)c(C)cc1Nc1nnc(-n2nc(C)cc2C)c2ccccc12 | inactive: -15.6%

SMILES | activation
COc1ccc(-c2nc3sc(CCNS(=O)(=O)c4c(C)cc(C)cc4C)c(C)n3n2)cc1 | inactive: -9.77%
N[C@H]1CN(c2c(F)cc3c(=O)c(C(=O)O)cn(C4C[C@@H]4F)c3c2Cl)CC12CC2 (some centres not stated) | inactive: -21.1%
Cc1cc(SCC(=O)Nc2nsc(-c3ccc(C(C)(C)C)cc3)n2)nc2ccccc12 | inactive: -42.9%
COc1cccc(N2CCN(C(=O)c3c4c(nc5ccccc35)C(=O)N(C3CCCCC3)C4)CC2)c1 | inactive: -28.5%
COc1ccc(OCc2nc(C#N)c(NCc3ccccc3Cl)o2)cc1 | inactive: -0.0626%
COc1cccc(NC(=O)C2CCCN2S(=O)(=O)c2ccc3nc(-c4ccccc4)[nH]c3c2)c1 (configuration not stated) | inactive: 35.6%
CCOC(=O)N1CCc2c(sc3c2c(=O)n(-c2ccc(CC)cc2)c(=O)n3Cc2cccc(OC)c2)C1 | inactive: -10.6%
COc1ccccc1N1CCN(S(=O)(=O)c2ccc(-n3cnnn3)cc2)CC1 | inactive: -14.2%
CC(=O)Nc1cccc(NC(=O)Cc2csc(COc3cccc(C)c3)n2)c1 | active: 68.9%
CCC(C(=O)Nc1cc(C)ccc1OC)n1nnc(C(=O)OC)c1C(=O)OC (configuration not stated) | inactive: -12.1%
CCOc1ccc(C2c3c(oc4cc(C)c(C)cc4c3=O)C(=O)N2c2ccccn2)cc1 (configuration not stated) | inactive: 1.42%
COc1ccc(NS(=O)(=O)c2ccc3c(c2)NC(=O)CCS3)c(OC)c1 | inactive: 20.9%
CCOc1ccc(C(=O)Nc2ccc3c(c2)N(C(C)=O)CCC3)cc1OCC | inactive: -8.02%
CCc1ccc(S(=O)(=O)N(C(C)=O)c2ccc3oc4c(c3c2)CCCC4)cc1 | inactive: -2.36%
CC(=O)Nc1ccc(S(=O)(=O)Nc2nc3n(n2)C(c2ccccc2)C=C(c2ccc(Cl)cc2)N3)cc1 (configuration not stated) | active: 83.5%
CC(=O)N1c2ccc(S(=O)(=O)NCC3CCC(C(=O)Nc4cc(C)cc(C)c4)CC3)cc2CC1C (configuration not stated) | inactive: 5.21%
Cc1ccc(C)c(S(=O)(=O)n2nc(C)c(S(=O)(=O)N3CCC(C)CC3)c2C)c1 | inactive: -11.2%
Cc1ccc(-n2nc3c(N4CCC(C(=O)N(C)Cc5ccccc5)CC4)nnc(C)c3c2C)cc1 | inactive: -6.86%
COc1ccccc1CNC(=O)CCC(=O)N1Cc2ccccc2Oc2ncccc21 | inactive: -5.89%
CN(C)c1ccc(CN(Cc2ccco2)C(=O)c2ccc(F)cc2)cc1 | inactive: -31%
CCN(CC)CCOC(=O)c1ccc(NC(=O)c2cc3cccc(OC)c3oc2=O)cc1 | inactive: 2.41%

SMILES | activation
Cn1c(=O)c2c(n3c4ccccc4nc13)NC(=O)CC2c1cccc(Cl)c1 (configuration not stated) | inactive: -2.17%
COc1ccc(Cl)cc1NC(=O)Cn1nnc(C(=O)NCc2ccc3c(c2)OCO3)c1N | active: 112%
COC(=O)c1sccc1S(=O)(=O)N1CCN(c2ccc(C(C)=O)cc2)CC1 | inactive: -3.39%
CCOC(=O)c1c(NC(=O)CSc2cn(CCNC(=O)c3c(F)cccc3F)c3ccccc23)sc2c1CCCC2 | inactive: 3.68%
Cc1ccc(-c2cc(C(=O)Nc3c(C(=O)c4ccc(C)c(F)c4)oc4ccccc34)no2)cc1 | inactive: 5.75%
CCOCCc1nn2c(=O)cc(COC(=O)c3cccc(C)c3)nc2s1 | inactive: -5.72%
Cc1ccc(C)c(N2CCN(C(=O)C3CCCN(S(=O)(=O)c4cccc5nonc45)C3)CC2)c1 (configuration not stated) | inactive: 9.85%
C[C@](N)(Cc1ccc(O)c(O)c1)C(=O)O | inactive: -28.7% and inactive: 18.7%
Cc1ccc(Cn2c(CN3CCC(C(=O)NCC(C)c4ccccc4)CC3)cc3ccccc32)cc1 (configuration not stated) | inactive: -3.95%
CC(=O)c1ccc(NC(=O)c2cc(C3CC3)nc3c2c(C)nn3-c2ccc(C)cc2)cc1 | inactive: 1.1%
COc1ccc(S(=O)(=O)NCCc2sc(-c3ccccc3)nc2C)cc1F | inactive: 11.1%
Cc1ccc(Cl)cc1N1CCN(S(=O)(=O)c2ccc(-c3cnc(C4CC4)o3)cc2)CC1 | inactive: -17.2%
CC(C)c1ccc(NC(=O)c2ccc(F)c(S(=O)(=O)N3CCN(c4ccccc4F)CC3)c2)cc1 | inactive: -1.62%
O=C(Nc1ccccc1F)C(Cc1ccccc1)N1Cc2ccccc2C1=O (configuration not stated) | inactive: -13.9%
O=C(Cn1cc(S(=O)(=O)N2CCN(c3ccccc3F)CC2)c2ccccc2c1=O)Nc1ccc(F)cc1Cl | inactive: -10.5%
COc1ccc(S(=O)(=O)NCCc2sc(-c3cccc(F)c3)nc2C)cc1 | inactive: 43.5%
COc1cc2c(C(=O)N3CCN(c4cc(Cl)ccc4C)CC3)cn(CC(C)C)c(=O)c2cc1OC | inactive: -4.55%
COc1ccc(C(=O)N2CCN(C(=O)COc3ccc(C)cc3)CC2)cc1OC | inactive: -27.5%
CC(C)c1ccc(NC(=O)CN2C(=O)CCc3cc(S(=O)(=O)N4CCOCC4)ccc32)cc1 | inactive: 1.99%
